Assay results taken from the supplement of paper PMC4967469.
IC50 is the fitted dose that halves viability relative to control wells, and lower means more sensitive; a limit (>, <) means that the fit lies beyond the doses tested. AUC sums up the same curve from the lowest dose to the 256-fold higher top dose; values near 1 show little effect. For some of these results: Where the top dose is marked as inferred, it is not printed in the source and was worked back from the curve model. For some of these results: Drugs with an entry number were screened twice under separate entries, and the two screens often disagree.

Experiments:
Experiment in all cases: Viability of human cancer cell lines after 72 h of drug (GDSC screen)
Thapsigargin = compound: C/C=C(/C)C(=O)O[C@H]1C(C)=C2[C@H]([C@@H]1OC(=O)CCCCCCC)[C@@](C)(OC(C)=O)C[C@H](OC(=O)CCC)[C@@]1(O)[C@H]2OC(=O)[C@@]1(C)O [Thapsigargin]; settings: top dose 0.512 µM; top dose inferred
Description: (§1)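 Human cancer cell lines in 384-well plates, medium with 10% serum, drug for 72 h over a 256-fold dose range (nine 2-fold or five 4-fold steps up to the top dose). Adherent lines were fixed and stained with the nucleic acid dye Syto60, suspension lines read with resazurin; signal relative to control wells, capped at 0 and 100%. One two-parameter sigmoid per drug and line, fitted in a mixed model over all curves with the slope shared within a line.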

QL-X-138 = compound: C=CC(=O)Nc1cc(-n2c(=O)ccc3cnc4ccc(-c5cn[nH]c5)cc4c32)ccc1C [QL-X-138]; settings: top dose 10.24 µM; top dose inferred
Description: as §1

GSK269962A = compound: CCn1c(-c2nonc2N)nc2cnc(Oc3cccc(NC(=O)c4ccc(OCCN5CCOCC5)cc4)c3)cc21 [GSK269962A]; settings: top dose inferred
Description: as §1

MPS-1-IN-1 = compound: COc1cc(N2CCC(O)CC2)ccc1Nc1cc(Nc2ccccc2S(=O)(=O)C(C)C)c2cc[nH]c2n1 [MPS-1-IN-1]; settings: top dose 20 µM; top dose inferred
Description: as §1

(5Z)-7-Oxozeaenol = compound: COc1cc(O)c2c(c1)/C=C/C[C@H](O)[C@H](O)C(=O)/C=C\C[C@H](C)OC2=O [(5Z)-7-Oxozeaenol]; settings: top dose 10 µM; top dose inferred
Description: as §1

CP466722 = compound: COc1cc2ncnc(-n3nc(-c4ccccn4)nc3N)c2cc1OC [CP466722]; settings: top dose 16 µM; top dose inferred
Description: as §1

Zibotentan = compound: COc1nc(C)cnc1NS(=O)(=O)c1cccnc1-c1ccc(-c2nnco2)cc1 [Zibotentan]; settings: top dose 20 µM; top dose inferred
Description: as §1

ABT-888 = compound: C[C@]1(c2nc3c(C(N)=O)cccc3[nH]2)CCCN1 [ABT-888]; settings: top dose 5 µM; top dose inferred
Description: as §1

CMK = compound: Cc1ccc(-c2c(C(=O)CCl)n(CCCO)c3ncnc(N)c23)cc1 [CMK]; settings: top dose 4 µM; top dose inferred
Description: as §1

ABT-869 = compound: Cc1ccc(F)c(NC(=O)Nc2ccc(-c3cccc4[nH]nc(N)c34)cc2)c1 [ABT-869]; settings: top dose 1.024 µM; top dose inferred
Description: as §1

CHIR-99021 = compound: Cc1cnc(-c2cnc(NCCNc3ccc(C#N)cn3)nc2-c2ccc(Cl)cc2Cl)[nH]1 [CHIR-99021]
Description: as §1

KU-55933 = compound: O=c1cc(-c2cccc3c2Sc2ccccc2S3)oc(N2CCOCC2)c1 [KU-55933]; settings: top dose 10 µM
Description: as §1

[1] = top dose 2.5 µM, screen: GDSC drug entry 127
[2] = top dose 5 µM, screen: GDSC drug entry 1192
[3] = top dose 2.56 µM, screen: GDSC drug entry 154
[4] = top dose 10 µM, screen: GDSC drug entry 1241, top dose inferred

Row | Cell Line | AUC (Thapsigargin) | IC50 (Thapsigargin) [nM] | AUC (QL-X-138) | IC50 (QL-X-138) [µM] | AUC (GSK269962A; [1]) | IC50 (GSK269962A; [1]) [µM] | AUC (GSK269962A; [2]) | IC50 (GSK269962A; [2]) [µM] | AUC (MPS-1-IN-1) | IC50 (MPS-1-IN-1) [µM] | AUC ((5Z)-7-Oxozeaenol) | IC50 ((5Z)-7-Oxozeaenol) [nM] | AUC (CP466722) | IC50 (CP466722) [µM] | AUC (Zibotentan) | IC50 (Zibotentan) [µM] | AUC (ABT-888) | IC50 (ABT-888) [µM] | AUC (CMK) | IC50 (CMK) [nM] | AUC (ABT-869) | IC50 (ABT-869) [nM] | AUC (CHIR-99021; [3]) | IC50 (CHIR-99021; [3]) [µM] | AUC (CHIR-99021; [4]) | IC50 (CHIR-99021; [4]) [µM] | AUC (KU-55933) | IC50 (KU-55933) [µM]
1 | SNB75 (glioma, adherent) | 0.473 | 26.1 | 0.92 | > 10.2 | 0.829 | > 2.5 | 0.841 | > 5 | 0.975 | > 20 | 0.672 | 2370 | 0.913 | > 16 | 0.973 | > 20 | 0.979 | > 5 | 0.92 | > 4000 | 0.966 | > 1020 | 0.925 | > 2.56 | 0.915 | > 10 | 0.958 | > 10
2 | SNU-C2B (large intestine, adherent) | 0.356 | 11.3 | 0.814 | 7.9 | – | – | 0.9 | > 5 | 0.916 | > 20 | 0.544 | 857 | 0.882 | > 16 | 0.98 | > 20 | 0.98 | > 5 | 0.91 | > 4000 | 0.976 | > 1020 | 0.968 | > 2.56 | 0.945 | > 10 | 0.979 | > 10
3 | SU-DHL-6 (B-cell lymphoma, suspension) | 0.2 | 5.77 | 0.269 | 0.174 | 0.96 | > 2.5 | 0.936 | 4.81 | 0.868 | 10.9 | 0.858 | 5080 | 0.495 | 0.971 | 0.994 | > 20 | 0.995 | > 5 | 0.714 | 834 | 0.995 | > 1020 | 0.942 | > 2.56 | 0.9 | 6.92 | 0.89 | 6.41
